# According to a collection of fitness landscapes (doi:10.1126/science.1257360):
# This is one part of the list.
# B1: PhoQ; a variant is named by its letters at X, in order, P23837 (parent)
# chain: MKKLLRLFFPLSLRVRFLLATAAVVLVLSLAYGMVALIGYSVSFDKTTFRLLRGESNLFYTLAKWENNKLHVELPENIDKQSPTMTLIYDENGQLLWAQRDVPWLMKMIQPDWLKSNGFHEIEADVNDTSLLLSGDHSIQQQLQEVREDDDDAEMTHSVAVNVYPATSRMPKLTIVVVDTIPVELKSSYMVWSWFIYVLSANLLLVIPLLWVAAWWSLRPIEALAKEVRELEEHNRELLNPATTRELTSLVRNLNRLLKSERERYDKYRTTLTDLTHSLKTPLXXLQXXLRSLRSEKMSVSDAEPVMLEQISRISQQIGYYLHRASMRGGTLLSRELHPVAPLLDNLTSALNKVYQRKGVNISLDISPEISFVGEQNDFVEVMGNVLDNACKYCLEFVEISARQTDEHLYIVVEDDGPGIPLSKREVIFDRGQRVDTLRPGQGVGLAVAREITEQYEGKIVAGESMLGGARMEVIFGRQHSAPKDE
# Variants of: B1
# Experiment: enrichment ratio after two sorts for PhoP signalling (ratio (wild type AVST 3.29)); higher = more functional
# Conditions: with PhoP (E. coli)
row,Variant,enrichment ratio
1,AGHH,≤ 0.25
2,SLGK,≤ 0.25
3,TFSA,8.36
4,NPFA,≤ 0.25
5,FNHD,≤ 0.25
6,AKKA,≤ 0.25
7,FVHC,≤ 0.25
8,ALCQ,13.8
9,IAFT,≤ 0.25
10,DHNI,≤ 0.25
11,NNDL,≤ 0.25
12,PQFT,≤ 0.25
13,FIVM,2.15
14,FKER,≤ 0.25
15,TSEK,≤ 0.25
16,EDAF,≤ 0.25
17,RELM,≤ 0.25
18,NMPC,≤ 0.25
19,RGQE,≤ 0.25
20,IDKL,≤ 0.25
21,RSMW,≤ 0.25
22,GERI,≤ 0.25
23,ELGK,≤ 0.25
24,LVND,≤ 0.25
25,AISQ,15.6

row,Variant,enrichment ratio
1,ENQP,≤ 0.25
2,NTTV,≤ 0.25
3,MSIF,≤ 0.25
4,FFDG,≤ 0.25
5,RYTI,≤ 0.25
6,SNFE,≤ 0.25
7,VTKV,≤ 0.25
8,EPVD,≤ 0.25
9,PMMR,≤ 0.25
10,AHIS,≤ 0.25
11,SYLF,≤ 0.25
12,LLFE,≤ 0.25
13,KARV,≤ 0.25
14,HYRM,≤ 0.25
15,YQIW,≤ 0.25
16,WHHC,≤ 0.25
17,YLWK,≤ 0.25
18,MDVY,≤ 0.25
19,KYPG,≤ 0.25
20,DTNH,≤ 0.25
21,GIGA,≤ 0.25
22,TMPI,≤ 0.25
23,AEDA,≤ 0.25
24,MWWH,≤ 0.25
25,PWYS,≤ 0.25

row,Variant,enrichment ratio
1,AKVW,≤ 0.25
2,RATI,≤ 0.25
3,DNHY,≤ 0.25
4,WAEK,≤ 0.25
5,VNRK,≤ 0.25
6,QYIL,≤ 0.25
7,MSQM,≤ 0.25
8,VWPT,≤ 0.25
9,RDQD,≤ 0.25
10,TVAD,≤ 0.25
11,YDSQ,≤ 0.25
12,LAGC,≤ 0.25
13,KDRL,≤ 0.25
14,TDWE,≤ 0.25
15,RFGD,≤ 0.25
16,NGVP,0.475
17,DWIL,≤ 0.25
18,IPPA,≤ 0.25
19,ISGY,≤ 0.25
20,DDRV,≤ 0.25
21,DATH,≤ 0.25
22,PCDP,≤ 0.25
23,LFAD,≤ 0.25
24,LIFA,≤ 0.25
25,SPGR,≤ 0.25

row,Variant,enrichment ratio
1,FPVL,≤ 0.25
2,YTAY,≤ 0.25
3,LEQV,≤ 0.25
4,LWLA,≤ 0.25
5,GLWP,≤ 0.25
6,GYRR,≤ 0.25
7,LYVR,≤ 0.25
8,CLSY,≤ 0.25
9,IQMK,≤ 0.25
10,RMME,≤ 0.25
11,PNYE,≤ 0.25
12,AQMN,38.4
13,RADS,≤ 0.25
14,DQHH,≤ 0.25
15,LFCQ,≤ 0.25
16,ISHL,≤ 0.25
17,YNIH,≤ 0.25
18,SLIA,≤ 0.25
19,TSES,2.55
20,TREG,≤ 0.25
21,HLAA,≤ 0.25
22,FFVD,≤ 0.25
23,TNDI,≤ 0.25
24,SDRS,≤ 0.25
25,FPAP,≤ 0.25

row,Variant,enrichment ratio
1,QHEG,≤ 0.25
2,FMEC,≤ 0.25
3,NAVR,≤ 0.25
4,WLLG,≤ 0.25
5,PPCI,≤ 0.25
6,NHHK,≤ 0.25
7,ESSF,≤ 0.25
8,PNQA,≤ 0.25
9,NHHI,≤ 0.25
10,QEDV,2.52
11,MTSS,≤ 0.25
12,QCKG,≤ 0.25
13,NSKS,≤ 0.25
14,VCPR,≤ 0.25
15,THTN,4.21
16,GFYF,≤ 0.25
17,EGPP,≤ 0.25
18,HEDG,≤ 0.25
19,FGLT,9.94
20,EQLH,≤ 0.25
21,SQLS,7.34
22,SFVP,≤ 0.25
23,HDPH,≤ 0.25
24,IGQP,≤ 0.25
25,MFMH,≤ 0.25

row,Variant,enrichment ratio
1,YLHA,≤ 0.25
2,TQTE,26.4
3,YHHG,≤ 0.25
4,ICIY,≤ 0.25
5,NDHH,≤ 0.25
6,EQRH,≤ 0.25
7,TCNT,7.62
8,NNMG,≤ 0.25
9,EEEI,≤ 0.25
10,EFAP,≤ 0.25
11,SNIY,≤ 0.25
12,YMEW,≤ 0.25
13,YTVF,0.29
14,YQLW,≤ 0.25
15,FYVW,≤ 0.25
16,ISKQ,≤ 0.25
17,DERY,≤ 0.25
18,AQVD,≤ 0.25
19,SQKW,≤ 0.25
20,KDMW,≤ 0.25
21,ASEY,≤ 0.25
22,AILE,2.65
23,RILA,≤ 0.25
24,RASL,≤ 0.25
25,HFNW,2.78

row,Variant,enrichment ratio
1,LTAD,≤ 0.25
2,PSRY,≤ 0.25
3,MFVD,≤ 0.25
4,ANGF,3.69
5,FLQN,≤ 0.25
6,YGVH,≤ 0.25
7,YSAV,≤ 0.25
8,RAYG,≤ 0.25
9,SRRN,≤ 0.25
10,GEWM,≤ 0.25
11,NTHR,≤ 0.25
12,VADT,≤ 0.25
13,LNGH,≤ 0.25
14,LHDE,≤ 0.25
15,IHTG,≤ 0.25
16,AASH,5.17
17,GFTS,≤ 0.25
18,ICTI,≤ 0.25
19,GERT,≤ 0.25
20,ERGI,≤ 0.25
21,MEHH,7.43
22,ITMS,≤ 0.25
23,WTEF,≤ 0.25
24,MYFL,≤ 0.25
25,SYGH,≤ 0.25

row,Variant,enrichment ratio
1,SAAF,6.02
2,MVPW,≤ 0.25
3,NAWF,≤ 0.25
4,SCVW,1.97
5,EYNV,≤ 0.25
6,GTDR,≤ 0.25
7,RWLH,≤ 0.25
8,WNHH,≤ 0.25
9,SMHY,≤ 0.25
10,IPQF,≤ 0.25
11,CFFL,≤ 0.25
12,IEIP,≤ 0.25
13,ELPC,≤ 0.25
14,KRSC,≤ 0.25
15,LYGR,≤ 0.25
16,AHAQ,≤ 0.25
17,FGNF,≤ 0.25
18,QMCP,≤ 0.25
19,TSEI,15.3
20,TAPQ,≤ 0.25
